Test results published in PubChem BioAssay AID624417 (National Center for Advancing Translational Sciences (NCATS), 2012).
Out of some 410,000 compounds screened, about 6,400 (1.6%) were called active. This list was built around the results that the source calls inconclusive (neither active nor inactive); the mix of calls is not that of the screen. Calls follow the shape of the dose curve; as a rule, active = well fitted inhibition curve with a large enough effect; inconclusive = small, poorly fitted or top-dose-only effect; inactive = no such curve, though single readings can be large or run the other way. No potency is given beside an inconclusive call; the fits are too rough.

Target: Glucagon-like peptide 1 receptor (Homo sapiens) (UniProt P43220)
Chain of UniProt P43220 (P43220 whole entry, looked up): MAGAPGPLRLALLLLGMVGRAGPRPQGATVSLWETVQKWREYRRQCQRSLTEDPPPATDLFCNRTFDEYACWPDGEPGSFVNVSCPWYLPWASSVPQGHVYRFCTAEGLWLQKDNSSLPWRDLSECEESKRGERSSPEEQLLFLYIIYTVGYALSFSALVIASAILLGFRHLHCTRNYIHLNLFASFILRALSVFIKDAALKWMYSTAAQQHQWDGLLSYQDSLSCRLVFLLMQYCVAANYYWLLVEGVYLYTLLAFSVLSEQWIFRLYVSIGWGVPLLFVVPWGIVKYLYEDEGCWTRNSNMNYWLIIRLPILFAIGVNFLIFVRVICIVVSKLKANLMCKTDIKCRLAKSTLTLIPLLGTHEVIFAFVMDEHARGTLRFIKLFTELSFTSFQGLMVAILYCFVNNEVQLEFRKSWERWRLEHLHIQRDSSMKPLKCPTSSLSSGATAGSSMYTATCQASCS
Experiment: qHTS of GLP-1 Receptor Inverse Agonists (Inhibition Mode); also: nearly all actives have a fitted effect of over 55% in size
Settings: HEK293 GLP-1R CRE-luciferase, luminescence, 24 h, GLP-1R form is constitutively active; series mostly up to 38.3 µM
How it was run: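 Luminescence readout: a drop in cAMP-driven luciferase signal flags inverse agonism at a constitutively active GLP-1R stably expressed in HEK293. Compound exposure lasted 24 hr at 37 deg C, 5% CO2.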
Potency is read from the fitted curve at half-maximal effect; tags tell the direction and shape of the fitted curve.

Row | SMILES | Potency
1 | O=C(OCCOc1cccc(Cl)c1)c1cc(S(=O)(=O)N2CCCCC2)ccc1N1CCOCC1 | active: 5.62 µM
2 | Cc1ccc(NC(=S)N(CCN(C)C)Cc2cccs2)cc1 | inconclusive [inhibitor, single point]
3 | COc1cccc(NC(=O)C2CCC(CNS(=O)(=O)c3cccs3)CC2)c1 (stereo unspecified) | inconclusive [inhibitor, partial curve, poor fit]
4 | CCOc1ccccc1N1CCN(C(=O)c2cccc(-c3ccc(O)cc3)c2)CC1 | inconclusive [inhibitor, partial curve, poor fit]
5 | CC1(C(=O)NS(=O)(=O)c2cccc(OC(F)F)c2)CCN1C(=O)CC(c1ccccc1)c1ccccc1 (stereo unspecified) | inactive
6 | COCCNC(=S)NCc1ccc2[nH]c3c(c2c1)CCCC3 | inconclusive [inhibitor, partial curve]
7 | CCn1c2ccccc2c2cc(/C=N/n3cnnc3)ccc21 | inconclusive [inhibitor, single point]
8 | CC(C)(C)c1ccc(OCCCN2CCCC2)cc1 | inconclusive [inhibitor, single point]
9 | CCN(CC)c1ccc([C@H]2[C@@H]3CCCC[C@]3(O)CCN2CC(=O)NCc2ccco2)cc1 | inconclusive [inhibitor, single point]
10 | CN(C)CCCN(C(=O)COc1ccccc1)c1nc2c(F)cccc2s1 | inactive
11 | O=C1[C@H]2[C@@H](c3ccc(C(F)(F)F)cc3)N[C@]3(CCCN(Cc4ccc(C(F)(F)F)cc4)C3=O)[C@H]2C(=O)N1Cc1ccccc1 | active: 4.47 µM
12 | CCOC(=O)c1ccc(NC(=O)c2oc(=O)c3ccccc3c2-c2ccccc2)cc1 | inactive
13 | Cc1ccc(S(=O)(=O)NCCC(=O)Nc2cccc(S(N)(=O)=O)c2)cc1C | inactive
14 | CNc1c2cccc(C)c2nc2c(C(=O)NCCN(C)C)cccc12 | inconclusive [inhibitor, full curve, poor fit]
15 | CCC(C)(C)NC(=O)Cc1ccc(F)cc1 | inconclusive [inhibitor, single point]
16 | Cn1nnnc1SCCCNCc1ccccc1OCc1ccccc1Cl | inconclusive [inhibitor, full curve]
17 | O=C(CSC1=Nc2ccccc2C2=NC(c3ccccc3)C(=O)N12)NC1CCCCC1 (stereo unspecified) | inactive
18 | O=C(Nc1ccc(F)cc1F)c1cncc(Br)c1 | inactive
19 | O=C(NCc1c(O)ccc2ccccc12)c1ccccc1 | inconclusive [inhibitor, partial curve, poor fit]
20 | COc1cccc(NC(=O)N2CCN3CCCCC3C2)c1 (stereo unspecified) | inactive
21 | CC(C)CN1C(=O)C(=O)N(CC(=O)N(C)CC(=O)Nc2ccc(Cl)c(C(F)(F)F)c2)C1=O | inconclusive [inhibitor, single point]
22 | C=CCn1nc([N+](=O)[O-])nc1Sc1cccc2cccnc12 | inconclusive [inhibitor, full curve, poor fit]

Row | SMILES | Potency
23 | COc1ccccc1C#CC1=CC(=O)CC(C)(C)C1 | inconclusive [inhibitor, single point]
24 | COc1ccc(-c2noc(Cn3c(=O)c4ccccc4n(CC(=O)Nc4cccc(OC)c4)c3=O)n2)cc1 | inactive
25 | COc1cc(OC)cc(N2C(=O)N(CC(=O)c3ccc(F)cc3)c3ccccc3S2(=O)=O)c1 | inactive
26 | CCC1CCCCN1C(=O)CSc1nnc(CNC(=O)COc2ccc(Cl)cc2)o1 (stereo unspecified) | inconclusive [inhibitor, partial curve]
27 | COC(=O)c1cc(O)cc(OC)c1C(=O)c1c(O)cc(C)cc1O | inactive
28 | Cc1ccc(N(C)S(=O)(=O)c2cccc(C(=O)Nc3nc4ccccc4[nH]3)c2)cc1 | inconclusive [inhibitor, partial curve, poor fit]
29 | Cc1ccc(Cn2c(SCc3ccc(C(=O)N4CCCCCC4)cc3)nc3ccncc32)cc1 | inconclusive [inhibitor, partial curve, poor fit]
30 | O=C(CSc1nnnn1-c1cccc(O)c1)NC1CC1 | inconclusive [inhibitor, partial curve, poor fit]
31 | CC(=O)c1cccc(NC(=O)Cn2cnc(S(=O)(=O)N3CCc4ccccc43)c2)c1 | inconclusive [inhibitor, single point]
32 | COc1ccc2c(c1)C(=O)C1(CC2)OC1c1cccnc1 (stereo unspecified) | inactive
33 | COc1ccc(-c2c[n+]3c(n2-c2ccc(C)cc2)CCCCC3)cc1 | inconclusive [inhibitor, full curve, poor fit]
34 | COc1ccc(-c2oc3cccnc3c2C#CC2(O)CCCCC2)cc1 | inconclusive [inhibitor, single point]
35 | CCN(CC)C1CCN(C(=O)c2ccc(OC3CCN(CCc4ccccc4)CC3)cc2)C1 (stereo unspecified) | inconclusive [inhibitor, full curve, poor fit]
36 | CN(C(=O)CCl)C1CCCc2ccccc21 (stereo unspecified) | inconclusive [inhibitor, partial curve, poor fit]
37 | CCOC(=O)c1c(NC(=O)Cn2nc(C(F)(F)F)cc2C)sc2c1CCC2 | inconclusive [inhibitor, single point]
38 | CCOc1ccccc1NC(=O)N1CCc2cc(S(=O)(=O)N3CCC(C)CC3)ccc21 | inactive
39 | CNC(=O)Cn1cc(S(=O)(=O)Cc2ccccc2F)c2ccccc21 | inactive
40 | O=C(Nc1ccc(Oc2cccc(C(F)(F)F)c2)nc1)c1ccccc1 | inconclusive [inhibitor, full curve, poor fit]
41 | CCOC(=O)C(C)(C)N(Cc1ccc(C)cc1)S(=O)(=O)c1ccc(Cl)c([N+](=O)[O-])c1 | inconclusive [inhibitor, single point]
42 | CCC(C)N(C)Cc1cccc(C2(O)CCN(S(=O)(=O)c3ccc(F)c(C)c3)CC2)c1 (stereo unspecified) | active: 2.51 µM
43 | Oc1ccc(N=Nc2c(O)ccc3ccccc23)cc1 | inactive
44 | O=C(Cc1ccc(Br)cc1)N1CCN(c2ccccc2)CC1 | inconclusive [inhibitor, single point]

Row | SMILES | Potency
45 | Cc1ccc(N(C(=O)C(F)(F)F)C(C(=O)NC2CCCCC2)c2cccs2)cc1C (stereo unspecified) | inactive
46 | COC(=O)c1c(-c2cccs2)csc1NC(=O)COc1c(C)ccc(C)c1C | inconclusive [inhibitor, partial curve, poor fit]
47 | CCOC(=O)c1ccc(NC(=O)N2CCOc3ccccc32)cc1 | inactive
48 | CCOc1cc(OCC)cc(C(=O)NC(=S)Nc2cccc(C(F)(F)F)c2)c1 | inactive
49 | CCCc1cc(C(=O)NNC(=S)NCc2ccccc2)cs1 | inconclusive [inhibitor, single point]
50 | COc1cc(NC(=O)COc2ccc(Cl)cc2)ccc1-c1cc2ccccc2oc1=O | inconclusive [inhibitor, full curve, poor fit]
51 | CCc1ccc(O)c(-c2cc(C(=O)Nc3cccnc3)[nH]n2)c1 | inconclusive [inhibitor, single point]
52 | NC(=NC(=O)c1ccc(Cl)cc1)N1N=CCC1c1ccccc1 (stereo unspecified) | inconclusive [inhibitor, single point]
53 | CCOC(=O)C1CCN(c2c(NCc3ccc(C(=O)NC(C)CC)cc3)c(=O)c2=O)CC1 (stereo unspecified) | inconclusive [inhibitor, single point]
54 | COc1ccc(-c2ccc3[nH]c4c(c3c2)CCN2C[C@@H]([C@H](C)OC(=O)Nc3cc(Cl)cc(Cl)c3)[C@@H](N(C)C(=O)Nc3cc(Cl)cc(Cl)c3)C[C@@H]42)cc1 | inconclusive [inhibitor, single point]
55 | CCN(CC(=O)Nc1ccc(OC)cc1)C(=O)CN1C(=O)NC(C)(c2ccc3ccccc3c2)C1=O (stereo unspecified) | inconclusive [inhibitor, partial curve, poor fit]
56 | CCCCC(=O)Nc1ccc(C(=O)Nc2ccc(S(=O)(=O)Nc3ccc(C)cc3)cc2)cc1 | inconclusive [inhibitor, single point]
57 | O=C(OC1C2CCC1C1CN(CCc3ccccc3)CC12)c1ccccc1 (stereo unspecified) | inconclusive [inhibitor, partial curve, poor fit]
58 | O=C(NCc1ccco1)c1nc2c(nnn2Cc2ccccc2Cl)c(=O)[nH]1 | inconclusive [inhibitor, single point]
59 | CNc1cccc(-c2cccc(C(=O)N3CCOCC3)c2)n1 | inactive
60 | Clc1ccc(CCNc2nc3ccccc3s2)cc1 | inconclusive [inhibitor, single point]
61 | O=C(CN1C(=O)NC(Cc2ccccc2)(Cc2ccccc2)C1=O)NCC1CCCCC1 | inconclusive [inhibitor, single point]
62 | COc1ccc(-c2nc(C(=O)Nc3ccc(C(C)=O)cc3)nn2-c2cccc(Cl)c2)cc1 | inconclusive [inhibitor, partial curve]
63 | CCN(CC)c1ccc2cc(-c3nc(-c4ccc(OC)cc4)cs3)c(=O)oc2c1 | inactive
64 | CN1CCN(c2ccc(NC(=O)c3cccs3)cc2)CC1 | inconclusive [inhibitor, partial curve, poor fit]
65 | CCCC(=O)NC(=S)Nc1c(C)cc(Br)cc1C | inconclusive [inhibitor, partial curve]
66 | CCOC(=O)c1c(NC(=O)CSc2ncccn2)sc2c1CCN(Cc1ccccc1)C2 | inconclusive [inhibitor, single point]
